# Results as given in the BET-seq Pho4 binding data (Le et al. 2018).
# The list shows a part of the results. The energies were worked out here from pooled read counts, against the library average; single values are noisy.
# Target: T1, Pho4 (S. cerevisiae) (UniProt P07270)
# T1 sequence: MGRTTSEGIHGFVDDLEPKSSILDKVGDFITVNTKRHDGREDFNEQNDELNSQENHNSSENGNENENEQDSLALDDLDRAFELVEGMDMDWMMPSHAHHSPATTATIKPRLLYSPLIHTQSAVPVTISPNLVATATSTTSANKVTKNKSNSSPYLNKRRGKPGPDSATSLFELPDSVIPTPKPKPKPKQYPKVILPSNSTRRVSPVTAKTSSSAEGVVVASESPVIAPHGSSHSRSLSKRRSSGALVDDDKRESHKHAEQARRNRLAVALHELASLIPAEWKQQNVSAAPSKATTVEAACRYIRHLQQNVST
# Test: relative binding free energy (BET-seq); higher = weaker binding
# Settings: reference: library average
row,Sequence,relative binding free energy [kcal/mol]
1,TTGCTCACGTGCTTTG,0.07
2,TCTATCACGTGGAGGG,0.11
3,GTTTGCACGTGTTTGT,0.09
4,AAGTTCACGTGGTGTG,0.16
5,TATGACACGTGAACGG,0.4
6,GAATGCACGTGGGGGA,-0.01
7,ACGGTCACGTGTTGGG,0.1
8,TGGAGCACGTGTGCGG,-0.06
9,AGGGCCACGTGTTAAG,0
10,TTTACCACGTGTGTTT,0
11,ATAAGCACGTGATGAT,0.06
12,GTCGACACGTGGGAAT,0.18
13,TTTTTCACGTGGGCGA,0.08
14,AGTTTCACGTGTCTTT,0.46
15,TGTGCCACGTGTTAGT,-0.01
16,GTGAGCACGTGGCGTT,-0.17
17,CGCGTCACGTGTGGTT,0.08
18,GGATGCACGTGGAGAT,0.01
19,ATTTTCACGTGTTCTA,0.11
20,GGGTTCACGTGTGAGC,0.49
21,GCTTACACGTGAGGGT,0.44
22,TATTTCACGTGTTTTC,0.27
23,GGTACCACGTGGTTGT,-0.12
24,TTTAGCACGTGTATTA,-0.13
25,TTATACACGTGGAGTT,0.02

row,Sequence,relative binding free energy [kcal/mol]
1,CGTCGCACGTGGAAGG,-0.03
2,AGGATCACGTGAGGTC,0.27
3,AAGGTCACGTGGAGGA,0.07
4,GATGGCACGTGGAGCG,0.02
5,TGTCGCACGTGAGTTG,0.09
6,TGTTACACGTGGATGG,0.12
7,TGATACACGTGTGTTT,0.07
8,GTGGACACGTGAGATT,0.34
9,TGTGTCACGTGGCGCG,-0.02
10,GGGTTCACGTGAACTG,0.41
11,ATGGGCACGTGTGGAC,-0.07
12,GAGGTCACGTGGTGTC,0.14
13,TGAGCCACGTGGGCTG,-0.17
14,GTGGTCACGTGTCTGT,0.21
15,TTTTGCACGTGAGAGG,0.26
16,ATGGACACGTGTGGCG,0.16
17,GTGGACACGTGATGTG,0.31
18,GTGATCACGTGTATCG,0.23
19,GGGCTCACGTGGGCGA,0.27
20,GTGTACACGTGCTTTG,-0.08
21,ACAGACACGTGGGTGT,-0.22
22,GGATGCACGTGTTATA,-0.03
23,TATTTCACGTGGGTAC,0.3
24,TAGGGCACGTGGACCT,-0.03
25,TAGTTCACGTGGTGAC,0.15

row,Sequence,relative binding free energy [kcal/mol]
1,GGCGTCACGTGCAGTG,0.03
2,GTCTGCACGTGTAGCG,0.12
3,GGCTGCACGTGTAGTG,0.18
4,TCGTGCACGTGACGGT,-0.06
5,TTAGACACGTGCTAGG,-0.05
6,GGTGTCACGTGGCGAA,0.03
7,GTGTTCACGTGATAGC,0.49
8,TGGGTCACGTGGTTGC,0.15
9,GGTGTCACGTGTGAGT,0.18
10,TAATTCACGTGGTTAA,0.12
11,CATTGCACGTGAGTAT,0.16
12,TGGGACACGTGTTATT,0.03
13,AGTGTCACGTGCGTGC,-0.03
14,ATTTTCACGTGGGGGT,0.19
15,CATAGCACGTGGTGTG,-0.21
16,GAGGACACGTGTGGGG,0.16
17,TGACGCACGTGAAGTG,0.19
18,CTGGACACGTGTGTAT,0.19
19,TTTAGCACGTGTGGTT,-0.03
20,AGTATCACGTGGTGGT,0.02
21,TTTATCACGTGCCGGT,0.14
22,GTGTTCACGTGAATGA,0.43
23,GATTCCACGTGTTTTT,0.08
24,AGTTACACGTGCCGGG,0.02
25,TTGGGCACGTGTCGAA,-0.13

row,Sequence,relative binding free energy [kcal/mol]
1,GGTGTCACGTGAAGCA,0.28
2,TTTACCACGTGTTATT,0
3,GGCGACACGTGGCGTG,-0.14
4,TTGTACACGTGGTTGT,0.02
5,GATTTCACGTGCTATT,0.18
6,TGCGCCACGTGAGGTT,0.1
7,ATTTCCACGTGTGAGT,0.1
8,AAGGACACGTGGTATG,-0.18
9,TGGGACACGTGGTATA,-0.02
10,TGGGTCACGTGGCCGG,-0.1
11,TAATTCACGTGCGTTT,0.17
12,CTGAACACGTGGAGGT,-0.05
13,TCGTTCACGTGGTAGG,0.27
14,GTGCACACGTGTGTGG,0.08
15,TGAGGCACGTGAAATT,0.37
16,ATTCACACGTGGAGGG,0.09
17,CGTTCCACGTGGGTGG,-0.16
18,TTAGGCACGTGGTGGT,-0.14
19,TTTTACACGTGATTAT,0.14
20,ATTTGCACGTGAGACG,0.23
21,CAGATCACGTGAGTTG,0.36
22,TTATACACGTGTGCGG,0.11
23,ACGTTCACGTGGCGGG,0.06
24,GGGCACACGTGGTTTG,0.07
25,GTTAGCACGTGTCGTT,0.12

row,Sequence,relative binding free energy [kcal/mol]
1,GGTAACACGTGGGCTA,0.02
2,GTGTGCACGTGGGATC,-0.13
3,GAAGTCACGTGAATTT,0.21
4,AAGCGCACGTGTAGGG,-0.16
5,AGATTCACGTGTACGG,0.15
6,AGATTCACGTGGTTAA,0.23
7,TTTAACACGTGATATG,0.21
8,AGATACACGTGAGGTG,0.21
9,GTTGACACGTGTGAAG,0.12
10,TGATACACGTGTTTCG,0.04
11,GGTTGCACGTGATGAG,0.16
12,AATGTCACGTGAGCAT,0.31
13,GTAAACACGTGGTGTA,-0.01
14,TCGTGCACGTGTTATG,-0.03
15,GTGAGCACGTGAAGGA,0.12
16,TTCTACACGTGAATGT,0.27
17,TTAAACACGTGTTGTG,-0.03
18,ATTGTCACGTGCAGGT,0.14
19,AAGGACACGTGCAGGT,-0.02
20,GGTGTCACGTGGTCGC,0.12
21,ATGAGCACGTGACGGG,0.08
22,ATTCGCACGTGGGTGC,-0.25
23,TGACTCACGTGTGGGT,0.18
24,TGGGGCACGTGGCTGG,-0.14
25,TAGGGCACGTGGGCCT,-0.33

row,Sequence,relative binding free energy [kcal/mol]
1,TTACTCACGTGAGAGT,0.39
2,ATCGTCACGTGGTTAA,0.16
3,TATCACACGTGGGGGG,0
4,CGAGTCACGTGCGTGT,-0.09
5,TCGGTCACGTGTAAGT,0.2
6,ATCCTCACGTGGTGTT,0.06
7,CATTCCACGTGTGGTT,0.11
8,GTGGACACGTGTAGGA,0.11
9,TGTCACACGTGTATGG,0.03
10,AGTGTCACGTGTCAGG,0.09
11,CGTGACACGTGGAAGT,0.07
12,ATAGTCACGTGTAGTG,0.06
13,ATGTGCACGTGTCGTT,-0.02
14,AGGGTCACGTGGGTAT,0
15,CGTTGCACGTGATAGG,0.01
16,TTGTGCACGTGGCTAC,0.05
17,GTGATCACGTGTGAGG,0.15
18,TGTCGCACGTGTTGGG,0.01
19,TTTCGCACGTGCGTTA,-0.11
20,TGGTCCACGTGACCGG,0.31
21,TCTTGCACGTGTGGAG,0.2
